{"source": "the supplement of paper PMC11417369", "note": "The list shows a part of the results.", "data": [{"test_system": "PfHDP1 homeodomain (GST-tagged)", "assay": "gcPBM binding intensity (ln(normalized median fluorescence intensity)); higher = stronger DNA binding", "summary_of_the_method": "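Binding of GST-tagged P. falciparum DNA-binding domains, expressed in E. coli and used at about 25 μg on average, was carried out for 1 h in 1× PBS containing 1% milk, 0.2 mg/ml BSA, 0.5% salmon testes DNA and 0.03% Triton X-100. The target was an Agilent 4 × 180k array of primer-extended double-stranded 36-bp intergenic genomic probes plus negative controls, read with Alexa488 anti-GST antibody at 488 nm. Binding intensity is the highest Masliner-normalised natural-log median intensity across replicate spots of either probe orientation.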", "values": [{"sequence": "TAAAGGAGCCTATGAACACACACATGTACTTATATT [CACACA_site9351]", "gcPBM binding intensity (ln)": 6.42}, {"sequence": "AATTGTTTGTTTGGGTGTACATGGTTCTATATAAAT [XGTACX_site7940]", "gcPBM binding intensity (ln)": 7.07}, {"sequence": "AATACAACATAATGAAGTACTGTATTTTATATTACT [XGTACX_site4885]", "gcPBM binding intensity (ln)": 6.12}, {"sequence": "TAATTTGAACGGTACAGTACTCTTTTTCTTTTTCAT [XGTACX_site5534]", "gcPBM binding intensity (ln)": 6.22}, {"sequence": "ATATATTTTTTCAATTGTACGTTTTAATAATATTTA [XGTACX_site2130]", "gcPBM binding intensity (ln)": 6.7}, {"sequence": "TTTCTTTGAATAAATACACACGAGAAATGAAAGTAG [CACACA_site8490]", "gcPBM binding intensity (ln)": 7.2}, {"sequence": "ATGAAATCTTTAGAATATAGATGATGTTATTTAATT [XGTACX_negctrl_site511]", "gcPBM binding intensity (ln)": 6.08}, {"sequence": "ATTAAAATGGTATGTGCGCACATAATATATATATGT [GTGCAC_site9572]", "gcPBM binding intensity (ln)": 9.81}, {"sequence": "ACATTGACATGTCGAAGTACTCAAGAAGCATACAAT [XGTACX_site3948]", "gcPBM binding intensity (ln)": 6.52}, {"sequence": "ATATAAATGATATGTACACACATTTATATTTATAAA [CACACA_site7600]", "gcPBM binding intensity (ln)": 6.41}, {"sequence": "ACTCTATACATCTAATGTACATGGAAAAAAAAATTC [XGTACX_site733]", "gcPBM binding intensity (ln)": 6.78}, {"sequence": "TGGAAAATTATTAACACACACATATAAATATATATA [CACACA_site46]", "gcPBM binding intensity (ln)": 6.49}, {"sequence": "GTAATAAGAATTATAGTGCAATGTAATACATTTATA", "gcPBM binding intensity (ln)": 8.07}, {"sequence": "TTCTTACATAAAATATCACACACATAAAAAAACAAT [CACACA_site8576]", "gcPBM binding intensity (ln)": 7.03}, {"sequence": "TTTATTACCATATTTTGTACACACATCTTTATCTCA [XGTACX_site6842]", "gcPBM binding intensity (ln)": 7.34}, {"sequence": "GCAAAATTTCCTAAGGTGCTTTTATTTTACACCGTT [GTGCAC_site9923]", "gcPBM binding intensity (ln)": 6.49}, {"sequence": "AATGGGTTAGCACATACACACCAATATATTATAGAT [CACACA_site7444]", "gcPBM binding intensity (ln)": 6.71}, {"sequence": "CTTTTATTGCTCTATATGCACACCTTAATTCTTCAT [CACACA_site2195]", "gcPBM binding intensity (ln)": 10.5}, {"sequence": "AAAACCTAAAAGTCTTAAATTTTAAATATACCTACA [GTGCAC_negctrl_site492]", "gcPBM binding intensity (ln)": 6.15}, {"sequence": "CAAAATATAAAAACATGTACATAAATATTAACGAAT [XGTACX_site2380]", "gcPBM binding intensity (ln)": 6.95}, {"sequence": "ATATGTTTATTAAATGCATGTCAAGACTTAAGATAT [TGCATGCA_site329]", "gcPBM binding intensity (ln)": 6.64}, {"sequence": "TCATCCACATATTGTAGTACAAGATAATTGTTTATT [XGTACX_site1634]", "gcPBM binding intensity (ln)": 6.65}, {"sequence": "AAAAATACAATTTTCTTGCACTTTGTTGCATTGTAA", "gcPBM binding intensity (ln)": 9.77}, {"sequence": "AACATATACACGAACACACACACATATAAATAAATA [CACACA_site6380]", "gcPBM binding intensity (ln)": 7.24}, {"sequence": "AAAATACATAAACGTTCACACATTGAAGATCACAAG [CACACA_site5347]", "gcPBM binding intensity (ln)": 6.45}, {"sequence": "TAGGTACATAAATTGGTGCAAAGTGTACATATATAT", "gcPBM binding intensity (ln)": 10.8}, {"sequence": "TTTAATACTTTTTTCTGTACACACTTGATTTACTAT [XGTACX_site5925]", "gcPBM binding intensity (ln)": 6.65}, {"sequence": "AAAAAAAAAAGACACACACACACACGGAGATATATA [CACACA_site6216]", "gcPBM binding intensity (ln)": 6.9}, {"sequence": "AATTTTAATTATATCACACATAATATATACCAAAAA [CACACA_site6011]", "gcPBM binding intensity (ln)": 6.29}, {"sequence": "TACATATTTTTATATACACACAATAATTACTATAAA [CACACA_site6879]", "gcPBM binding intensity (ln)": 6.55}, {"sequence": "TCTTCCGCTTTATGGAGTACTATGGTAGCCTTTCCT [XGTACX_site2958]", "gcPBM binding intensity (ln)": 5.87}, {"sequence": "GACCTACAAAAAGGCACACATATACGCATACATACA [CACACA_site2179]", "gcPBM binding intensity (ln)": 6.8}, {"sequence": "CATATTTTCAAAATTAGTACATAAAAAAAAAAATAT [XGTACX_site3101]", "gcPBM binding intensity (ln)": 6.53}, {"sequence": "TATAATCATATATACACACACATATATATATATATA [CACACA_site2168]", "gcPBM binding intensity (ln)": 9.36}, {"sequence": "AATATTTTTTGTTTTACACACATATATAGATATATA [CACACA_site7662]", "gcPBM binding intensity (ln)": 6.82}, {"sequence": "CAGATATTTGTTCATATACACACTTTTGATAAAATA [CACACA_site1219]", "gcPBM binding intensity (ln)": 6.54}, {"sequence": "CAAAAAATGAAACACACACACACACCCATAAATAAA [CACACA_site1231]", "gcPBM binding intensity (ln)": 6.9}, {"sequence": "TCATATATAAAAAGGGTGCTTTTAAAAGAATGGATT", "gcPBM binding intensity (ln)": 7.06}, {"sequence": "TTTTTTTTTGTATTTTCACACATTTTTTTTTTTTTT [CACACA_site5407]", "gcPBM binding intensity (ln)": 6.33}, {"sequence": "TTATTTAAACAAATCACACACAAATATATATACATA [CACACA_site2019]", "gcPBM binding intensity (ln)": 6.61}, {"sequence": "TTTTTTGGGTAAAATTATAAAATATGTATATATAAA [CACACA_negctrl_site27]", "gcPBM binding intensity (ln)": 6.12}, {"sequence": "ATATGCATAAAAAGAGGTACACATAAAATATATATA [XGTACX_site5864]", "gcPBM binding intensity (ln)": 6.81}, {"sequence": "TATACACATATATAAAGTACATATATGTGTAAAAAA [XGTACX_site8582]", "gcPBM binding intensity (ln)": 6.8}, {"sequence": "AGAATAAATATGCACACATGCATATATTTTTACACT [TGCATGCA_site893]", "gcPBM binding intensity (ln)": 10.3}, {"sequence": "TTAGTCCATATTTTTGCACACCATTTTTTTTTTTTT [CACACA_site3927]", "gcPBM binding intensity (ln)": 10.3}, {"sequence": "ATCCTTAATATGAACACACAAATATATTGCACATAT [CACACA_site6230]", "gcPBM binding intensity (ln)": 10.9}, {"sequence": "ATATATTTATATTGTACACACATTTATGCATATATA [CACACA_site7502]", "gcPBM binding intensity (ln)": 6.85}, {"sequence": "AAATATACAATATTCACACAAAAAAATACATTACAA [CACACA_site5004]", "gcPBM binding intensity (ln)": 6.57}, {"sequence": "TGTTTTTATAAAATAAATAAATATATATATATATAT [CACACA_negctrl_site502]", "gcPBM binding intensity (ln)": 9.03}, {"sequence": "TTTCTTACAAAAGCTAGAGTTTTTTTTTTTTTTTTT [XGTACX_negctrl_site341]", "gcPBM binding intensity (ln)": 6.43}, {"sequence": "TAAATTTGTGTTATTAAAAAAATGGTTTAAAAATGT [XGTACX_negctrl_site352]", "gcPBM binding intensity (ln)": 6.53}, {"sequence": "TCTTTTTCATCTTTCAACAAAAAATAATATATGTGT [CACACA_negctrl_site866]", "gcPBM binding intensity (ln)": 6.58}, {"sequence": "AAAAATAAAAAATATAAAAATATAAAAATATAAAAA [XGTACX_negctrl_site51]", "gcPBM binding intensity (ln)": 6.29}, {"sequence": "TTATATTTTCTCCGCGTGCACATATGTATACTATAC", "gcPBM binding intensity (ln)": 9.66}, {"sequence": "TAGGGTAGTTATAATTGTACTTTTCTCCAAAAAAAA [XGTACX_site7321]", "gcPBM binding intensity (ln)": 6.44}, {"sequence": "TTTTTGTTTTTTTGTTTATCGTTCGTGACTACATGA [TGCATGCA_negctrl_site124]", "gcPBM binding intensity (ln)": 6.62}, {"sequence": "GAAATCTAAATAGAAACACACATATATATATATATA [CACACA_site3863]", "gcPBM binding intensity (ln)": 9.3}]}]}
